Experimental data: PubChem BioAssay AID1963318 (National Center for Advancing Translational Sciences (NCATS), 2024)
About 100 (7.7%) of roughly 1,300 compounds were called active. Inconclusive means that the source gave no clear call. Such entries were picked first, then a sample of the others. Calls follow the shape of the dose curve; as a rule, active = well fitted activation curve with a large enough effect; inconclusive = small, poorly fitted or top-dose-only effect; inactive = no such curve, though single readings can be large or run the other way. Potencies beside an inconclusive call are fits to weak or partial responses and may not hold up.

target: Luciferin 4-monooxygenase (Photinus pyralis) (UniProt P08659); assay: Firefly luciferase (FLuc-C-HiBiT) SDR gain of signal screen - without ATP; details: Purified FLuc-C-HiBiT, Nano-Glo HiBiT luminescence, no ATP; series mostly up to 32.7 µM; also: nearly all actives have a fitted effect of over 55% in size
Sequence of UniProt P08659 (P08659 whole entry, looked up): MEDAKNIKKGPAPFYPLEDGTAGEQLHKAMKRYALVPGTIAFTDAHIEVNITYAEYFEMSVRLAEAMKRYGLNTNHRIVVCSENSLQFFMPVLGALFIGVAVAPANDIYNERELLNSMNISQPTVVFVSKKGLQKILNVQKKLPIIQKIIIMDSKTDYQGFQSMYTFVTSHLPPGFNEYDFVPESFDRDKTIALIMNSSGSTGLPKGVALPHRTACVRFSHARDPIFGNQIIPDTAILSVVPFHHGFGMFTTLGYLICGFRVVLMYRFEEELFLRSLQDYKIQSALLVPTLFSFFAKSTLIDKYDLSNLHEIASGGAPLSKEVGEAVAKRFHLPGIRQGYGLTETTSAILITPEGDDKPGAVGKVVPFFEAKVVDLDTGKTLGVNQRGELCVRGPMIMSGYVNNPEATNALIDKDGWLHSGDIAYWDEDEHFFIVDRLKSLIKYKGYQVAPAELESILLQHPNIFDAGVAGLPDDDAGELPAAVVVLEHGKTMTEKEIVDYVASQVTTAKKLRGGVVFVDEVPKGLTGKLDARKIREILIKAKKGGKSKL
Excerpt: PI: James Inglese Ph.D. National Center for Advancing Translational Sciences (NCATS), National Institute of Health (NIH), Maryland Discovery and optimization of novel protein-binding ligands underlies many of the methods and applications of biology, drug discovery, clinical diagnostics, and environmental toxicology. Assays for detecting the interaction of, for example, a molecule with a macromolecular target also referred to here as the target of interest (TOI) is dependent on a compatible output technology. Depending on the nature and knowledge surrounding the TOI, whether a receptor, enzyme, regulatory subunit or scaffold, or a sequence-defined nucleic acid folded into a complex tertiary structure, assay strategies can vary widely. Here we exploit ligand-biased changes in the structural dynamics of the target protein to control reporter alpha complementation allowing a non-competitive, non-functional, non-separation measure of ligand-target interaction. […] Secondly, we show the specificity and sensitivity of the SDR for the Abelson tyrosine kinase (ABL1) compared to the serine/threonine protein kinase A, using an enriched chemical library of 128 compounds selected, in part, for activity annotated with ABL1 kinase activity using the Pharos database (3). References: (1) A. S. Dixon et al., NanoLuc Complementation Reporter Optimized for Accurate Measurement of Protein Interactions in Cells. ACS Chem Biol 11, 400-408 (2016). […] Chemistry & Biology, 19, 1060 - 1072 (2012). (3) K. J. Kelleher et al., Pharos 2023: an integrated resource for the understudied human proteome. Nucleic Acids Res 51, D1405-D1416 (2023).
1. Reagent. Dispense 4 uL FLuc-C-HiBiT enzyme-buffer solution per well at a final enzyme concentration of 10 nM with or without 10 uM ATP into columns 2-48 of white, solid bottom medium bind 1536-well plates (Greiner Bio-One) by BioRaptr 2. Dispense respective buffer without enzyme at 4 uL/well in column 1 of assay plates. 2. Compounds. Library compounds and PTC124 control added at 23 nL per well, transfer by Pin Tool. 3. Incubation. Incubate enzyme and compounds at room temperature for >30 min, protect from light. 4. Reagent. (SDR assay) Add 3 uL/well of Nano-Glo HiBiT reagent (Promega) to assay plates for SDR assay without ATP. 5. Incubation. Incubate enzyme and substrate or detection reagent at room temperature for 5-10 min, protect from light. 6. Detector. HiBiT SDR assay measured using CCD-based camera (ViewLux) with settings as follows: Exposure, 1 sec; Gain, High; Speed, Slow; Binning, 2X. REFERENCES: Inglese J, Shamu CE and Guy RK, Reporting data from high throughput screening of small molecule libraries, Nature Chemical Biology, 2007, 3(8): 438-441. doi.org/10.1038/nchembio0807-438.
Potency is read from the fitted curve at half-maximal effect; tags tell the direction and shape of the fitted curve.

Q: For COc1ccc(N2CCN(C(=O)Cn3cccc3-c3nc(-c4ccc5c(c4)OCO5)no3)CC2)cc1, which Potency is on record?
A: Its Potency is “inactive”.

Q: How did the Potency turn out when Cc1ccc(NC(=O)N2CCc3c(C(=O)NCCc4ccccn4)cccc32)cc1 was run?
A: The Potency was inconclusive: 15.7 µM [activator, partial curve].

Q: O=C(Nc1cnc(-c2ccccc2)nc1)C1CCCC1 was tested. Which Potency did it give?
A: The Potency was inconclusive: 11.1 µM [activator, partial curve].

Q: Which Potency does the source give for COc1cccc(Nc2cc3c(cn2)CN(Cc2cccnc2)CCN3)c1 here?
A: Its Potency is inconclusive: 20.2 µM [activator, partial curve, poor fit].

Q: How did the Potency turn out when COc1ccc(-c2nnc(SC(C)C(=O)O)o2)cc1 (stereo not given) was run?
A: Its Potency is inconclusive: 27.9 µM [activator, partial curve, poor fit].

Q: How did the Potency turn out when COCC(=O)Nc1nc2c(s1)C[C@]1(C)CC[C@@H]3[C@H](OC(=O)[C@H]3C)[C@H]1[C@@H]2C was run?
A: The Potency was active: 6.4 µM.

Q: How did the Potency turn out when CSc1ccc(/C=C/c2nc3ccccc3n2S(=O)(=O)c2ccc(Br)cc2)cc1 was run?
A: The Potency was active: 7.85 µM.

Q: With CS(=O)(=O)Nc1ccc(-c2nc3ccccc3s2)cc1 as the compound, how does the Potency read?
A: The Potency was inconclusive: 12.4 µM [activator, partial curve].

Q: For CC1CCCCN1c1ncnc2c1cnn2-c1ccccc1 (stereo not given), which Potency is on record?
A: The Potency was active: 11.1 µM.

Q: For CN(C)c1cccc(-c2ncc3c(n2)OCCN(c2ccccc2)C3=O)c1, which Potency is on record?
A: The Potency was inconclusive: 25.5 µM [activator, partial curve, poor fit].

Q: Which Potency does the source give for CCC(C(=O)NCCn1ccn2nc(-c3ccc(OC)cc3)cc2c1=O)c1ccccc1 (stereo not given) here?
A: The Potency was “inactive”.

Q: How did the Potency turn out when O=C(Nc1nn(-c2cccc(F)c2)c2cccc(N3CCOCC3)c12)C1CCC1 was run?
A: The Potency was inconclusive: 14 µM [activator, partial curve, poor fit].

Q: Fc1ccc(Cc2cn3cc(-c4ccc(F)cc4)nc3s2)cc1 was tested. Which Potency did it give?
A: Its Potency is inconclusive: 1.97 µM [activator, full curve, poor fit].

Q: For CC(=O)NCCNC(=O)c1ccc2c(=O)n(CCc3ccccc3)c(=O)[nH]c2c1, which Potency is on record?
A: Its Potency is “inactive”.

Q: With CSc1ccc(/C=C/c2nc3ccccc3n2S(=O)(=O)c2ccc(F)c(C)c2)cc1 as the compound, how does the Potency read?
A: Its Potency is active: 4.95 µM.

Q: How did the Potency turn out when Cc1ccc(/C=C/c2nc3ccccc3n2S(=O)(=O)c2ccc(Br)cc2)cc1 was run?
A: Its Potency is active: 1.76 µM.

Q: With Cc1cn2c(=O)cc(COC(=O)c3ccccc3F)nc2s1 as the compound, how does the Potency read?
A: The Potency was “inactive”.

Q: With COc1ccc(NC(=O)N2CCc3c(C(=O)NCc4ccncc4)cccc32)cc1 as the compound, how does the Potency read?
A: The Potency was active: 12.4 µM.

Q: How did the Potency turn out when CCc1ccc(C(=O)Nc2ccc3c(N4CCOCC4)ncnc3c2)cc1 was run?
A: Its Potency is inconclusive: 15.7 µM [activator, partial curve, poor fit].

Q: CCCCC(=O)Nc1cccc(-c2nc3ccccc3s2)c1 was tested. Which Potency did it give?
A: Its Potency is “inactive”.

Q: With O=C(O)CCSc1nnc(-c2ccc(Cl)cc2Cl)o1 as the compound, how does the Potency read?
A: Its Potency is inconclusive: 15.7 µM [activator, partial curve, poor fit].

Q: With Cc1ccc(-n2ncc3c(N4CCCCC4)ncnc32)cc1 as the compound, how does the Potency read?
A: Its Potency is active: 1.76 µM.

Q: For COCCN1CCNc2cc(-c3cccc(OC)c3)ncc2C1, which Potency is on record?
A: Its Potency is inconclusive: 5.7 µM [activator, full curve, poor fit].

Q: For Nc1ccc2nc(-c3ccc(O)cc3)sc2c1, which Potency is on record?
A: Its Potency is active: 3.94 µM.

Q: For Cc1ccc(C(=O)Nc2ccccc2C(=O)O)cc1S(=O)(=O)N1CCCCCC1, which Potency is on record?
A: The Potency was inconclusive: 7.85 µM [activator, partial curve].

Q: How did the Potency turn out when Cc1ccc(NC(=O)Nc2ccccc2)c(=O)n1CC(=O)NCC1CCCO1 (stereo not given) was run?
A: Its Potency is inconclusive: 14 µM [activator, partial curve, poor fit].

Q: Which Potency does the source give for O=C(O)c1ccc(-c2noc(-c3ccccc3F)n2)cc1 here?
A: The Potency was inconclusive: 15.7 µM [activator, partial curve, poor fit].

Q: For O=C(O)c1cccc(-c2noc(-c3ccccc3F)n2)c1, which Potency is on record?
A: The Potency was active: 11.1 µM.

Q: CCC(=O)N1CCc2ccc(C(=O)NC3CCCCC3)cc21 was tested. Which Potency did it give?
A: Its Potency is inconclusive: 15.7 µM [activator, partial curve, poor fit].

Q: With Cc1ccc2nc(-c3ccc(N)cc3)sc2c1S(=O)(=O)O as the compound, how does the Potency read?
A: Its Potency is inconclusive: 12.4 µM [activator, partial curve].

Q: For CCOc1ccc(C(=O)Nc2onc3c2CCCC3)cc1, which Potency is on record?
A: Its Potency is inconclusive: 15.7 µM [activator, partial curve].

Q: With COc1ccc2cc(C3CN(C(=O)CNC(=O)C(C)C)CCO3)ccc2c1 (stereo not given) as the compound, how does the Potency read?
A: Its Potency is inconclusive: 14 µM [activator, partial curve, poor fit].

Q: For CCc1ccc2nc(N3CCC(C(=O)O)CC3)sc2c1, which Potency is on record?
A: Its Potency is active: 2.48 µM.

Q: With O=C(Nc1ccc([C@H]2OCC(=O)N(C3CCOCC3)[C@@H]2CO)cc1)c1ccc(C(F)(F)F)cc1 as the compound, how does the Potency read?
A: Its Potency is inconclusive: 15.7 µM [activator, partial curve, poor fit].

Q: COc1cc(OC)cc(C(=O)Nc2cc(-c3nc4ccccc4s3)ccc2OC)c1 was tested. Which Potency did it give?
A: Its Potency is “inactive”.

Q: Which Potency does the source give for C[C@H](C(=O)NCCN1CCOCC1)C1CC[C@@]2(C)Cc3sc(-c4ccccc4)nc3[C@@H](C)[C@@H]2[C@H]1O (stereo not given in full) here?
A: Its Potency is active: 2.21 µM.

Q: Cc1cccc(-n2ncc3c(N4CCCCCC4)ncnc32)c1 was tested. Which Potency did it give?
A: Its Potency is active: 4.95 µM.

Q: Which Potency does the source give for Cc1ccc(Cl)cc1-n1ncc2c(N3CCC(C)CC3)ncnc21 here?
A: The Potency was “inactive”.

Q: How did the Potency turn out when COCCN1CCC2(C1)CN(C)c1ccc(C(=O)Nc3ccn(C)n3)cc12 (stereo not given) was run?
A: Its Potency is inconclusive: 25.5 µM [activator, partial curve].

Q: For Fc1ccccc1Nc1nc(-c2ccccc2)no1, which Potency is on record?
A: Its Potency is inconclusive: 12.4 µM [activator, partial curve, poor fit].

Q: Cc1c(NC(=O)C(C)(C)C)cccc1-c1nc2ccccc2s1 was tested. Which Potency did it give?
A: Its Potency is inconclusive: 14 µM [activator, partial curve].

Q: CCc1cccc(NC(=O)C2CCN(C(=O)c3ncn4c3COC(c3ccccc3)C4)CC2)c1 (stereo not given) was tested. Which Potency did it give?
A: Its Potency is “inactive”.

Q: COc1ccc(-c2ncc3c(n2)OCCN(CC2CC2)C3=O)cc1 was tested. Which Potency did it give?
A: Its Potency is inconclusive: 20.2 µM [activator, partial curve].

Q: How did the Potency turn out when C[C@@H]1C(=O)O[C@H]2[C@H]1CC[C@@]1(C)Cc3sc(NC(=O)c4ccncc4)nc3[C@@H](C)[C@H]21 was run?
A: The Potency was inconclusive: 0.57 µM [activator, full curve].

Q: COc1ccc2cc(-c3nc4ccc(C(=O)O)cc4[nH]3)c(=O)oc2c1 was tested. Which Potency did it give?
A: Its Potency is active: 0.785 µM.
